Screen size: about 310,000 compounds; about 14,000 (4.5%) showed an effect of 50% or more. The effect is printed as a negative number. This is one part of the list.
The molecules below were run against human ether-à-go-go-related gene (hERG) potassium channel (human, UniProt Q12809) (assay: primary screen, population patch clamp on CHO cells stably expressing hERG).
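Note: peak tail current of the secondary pulse compared with the same well before compound.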

Chain of human ether-à-go-go-related gene (hERG) potassium channel (Q12809 whole entry, looked up): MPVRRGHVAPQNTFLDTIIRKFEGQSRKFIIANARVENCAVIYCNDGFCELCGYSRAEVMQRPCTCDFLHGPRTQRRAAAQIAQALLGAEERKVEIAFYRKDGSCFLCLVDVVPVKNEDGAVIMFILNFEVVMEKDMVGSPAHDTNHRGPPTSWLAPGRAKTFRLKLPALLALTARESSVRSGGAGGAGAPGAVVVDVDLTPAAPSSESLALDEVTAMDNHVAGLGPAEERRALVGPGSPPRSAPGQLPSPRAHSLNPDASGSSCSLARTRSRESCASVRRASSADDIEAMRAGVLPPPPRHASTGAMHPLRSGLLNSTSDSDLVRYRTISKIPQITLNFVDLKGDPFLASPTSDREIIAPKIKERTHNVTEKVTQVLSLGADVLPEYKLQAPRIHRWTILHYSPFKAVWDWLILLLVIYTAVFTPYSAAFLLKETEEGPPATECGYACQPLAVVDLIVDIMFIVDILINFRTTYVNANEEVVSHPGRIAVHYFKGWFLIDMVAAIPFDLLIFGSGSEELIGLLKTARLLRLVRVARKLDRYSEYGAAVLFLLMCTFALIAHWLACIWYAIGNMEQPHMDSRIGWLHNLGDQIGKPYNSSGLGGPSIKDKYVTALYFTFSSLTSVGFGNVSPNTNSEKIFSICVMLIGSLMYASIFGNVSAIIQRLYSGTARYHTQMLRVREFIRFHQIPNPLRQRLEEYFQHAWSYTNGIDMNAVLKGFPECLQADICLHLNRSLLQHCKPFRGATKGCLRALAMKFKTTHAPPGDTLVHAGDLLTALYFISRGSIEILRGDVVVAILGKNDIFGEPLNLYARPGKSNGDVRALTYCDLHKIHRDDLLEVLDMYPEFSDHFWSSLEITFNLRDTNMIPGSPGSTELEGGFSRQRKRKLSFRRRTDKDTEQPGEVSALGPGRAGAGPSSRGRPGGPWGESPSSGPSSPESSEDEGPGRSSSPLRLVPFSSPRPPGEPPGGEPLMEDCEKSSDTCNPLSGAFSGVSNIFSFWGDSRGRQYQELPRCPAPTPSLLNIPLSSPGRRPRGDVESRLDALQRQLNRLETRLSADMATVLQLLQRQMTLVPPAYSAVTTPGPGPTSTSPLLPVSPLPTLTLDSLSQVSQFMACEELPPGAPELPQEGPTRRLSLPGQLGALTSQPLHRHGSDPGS

First: O=C(Nc1cccnc1)C12CC3CC(CC(C3)C1)C2
Second: COc1ccccc1C(=O)NC(=S)NC12CC3CC(CC(C3)C1)C2
The “hERG current change (%, negative = inhibition) at 10uM” value of the first is lower: -7.79% for the first, -5.02% for the second.

Compared with `COc1cccc(N(CC(=O)NC2CCCC2)C(=O)CCCC(=O)Nc2ccccn2)c1`, `COc1ccc(C(=O)OCC(=O)NC(=O)NC2CCCC2)c(O)c1` is higher in “hERG current change (%, negative = inhibition) at 10uM” value: -0.819% for the first, 25.3% for the second.

Compared with `Nc1nc(Nc2ccc(Cl)cc2)n[nH]1`, `CC(=O)Nc1nc2n(n1)C(c1ccc(Cl)cc1)C=C(C)N2` (stereo not drawn) is lower in “hERG current change (%, negative = inhibition) at 10uM” value: 3.52% for the first, -15.7% for the second.

Going from `COc1cc(C(=O)N2C[C@H]3C[C@@H](C2)c2cccc(=O)n2C3)cc(OC)c1OC` to `COc1cc(OC)c(OC)cc1CN(C)CC1CCCN(CCc2ccccc2F)C1` (stereo not drawn), the “hERG current change (%, negative = inhibition) at 10uM” value falls from 8.06% to -2.33%.

Going from `Cc1ccccc1C(=O)NC(NCc1ccco1)C(Cl)(Cl)Cl` (stereo not drawn) to `Cc1ccc(C)c(Cn2c(=O)n(CCCC(=O)NCc3ccco3)c(=O)c3ccccc32)c1`, the “hERG current change (%, negative = inhibition) at 10uM” value rises from -8.92% to 0.892%.

Going from `O=C(Cn1ncc2c([nH]c3ccccc32)c1=O)N1CCOCC1` to `CCn1c(SCC(=O)N2CCN(c3ccccc3)CC2)nc2c([nH]c3ccccc32)c1=O`, the “hERG current change (%, negative = inhibition) at 10uM” value falls from 16.4% to 7.13%.

Going from `c1ccc2oc(N3CCNCC3)nc2c1` to `Cn1c(Nc2ccc(F)cc2)nc2ccccc21`, the “hERG current change (%, negative = inhibition) at 10uM” value falls from -12.9% to -51.7%.

Compared with `CSc1ccc(Cn2nnc(C(=O)NCCc3ccc(Cl)cc3)c2N)cc1`, `COc1ccc(OC)c(NC(=O)c2nnn(Cc3ccc(Br)cc3F)c2N)c1` is higher in “hERG current change (%, negative = inhibition) at 10uM” value: 10.7% for the first, 12.7% for the second.

Going from `COc1ccc(C(=O)Nc2ccc(C(=O)N3CCCC3)cc2)cc1[N+](=O)[O-]` to `COc1ccc(NC(=O)c2cc([N+](=O)[O-])ccc2O)cc1`, the “hERG current change (%, negative = inhibition) at 10uM” value falls from -33.2% to -57.6%.

Compared with `O=C(COC(=O)/C=C/c1cccs1)NC(c1ccccc1)c1ccccc1`, `CCOC(=O)CCCNC(=O)CCCNC(=O)C(c1ccccc1)c1ccccc1` is lower in “hERG current change (%, negative = inhibition) at 10uM” value: -2.53% for the first, -8.05% for the second.

First: CCc1c(C(C)S(=O)(=O)c2ccc(C)cc2)[nH]c(=O)n1-c1ccc(OC(F)(F)F)cc1 (stereo not drawn)
Second: Cc1ccc(S(=O)(=O)CC(=O)Nc2nnc(C(C)C)s2)cc1
The “hERG current change (%, negative = inhibition) at 10uM” value of the first is higher: 12.8% for the first, 12.6% for the second.

Going from `CCc1nnc(NC(=O)CCC(=O)N2CCN(c3cc(C)ccc3C)CC2)s1` to `CS(=O)(=O)N1CCN(c2ccccc2NC(=O)CSc2nnc(-c3ccco3)o2)CC1`, the “hERG current change (%, negative = inhibition) at 10uM” value falls from 11.9% to -21.7%.

Going from `COc1cccc(-c2cc(C(=O)Nc3c(C)nn(Cc4ccccc4C)c3C)no2)c1` to `COc1ccc2cc(C)c3nnc(SCC(=O)Nc4nc(-c5ccccc5)cs4)n3c2c1`, the “hERG current change (%, negative = inhibition) at 10uM” value falls from -11.8% to -15.5%.

First: C=CCNc1nc(Nc2cc(Cl)ccc2OC)nc(OC)n1
Second: C=CCOc1ccc(Cl)cc1CNCCCN1CCOCC1.Cl
The “hERG current change (%, negative = inhibition) at 10uM” value of the first is higher: 23.5% for the first, -18.2% for the second.

First: CCCc1cc(=O)oc2cc(OCC(=O)NCCc3c[nH]c4ccc(OC)cc34)ccc12
Second: COC(=O)C1CCCCN1C(=O)CCc1nnc(CCc2c[nH]c3ccccc23)o1 (stereo not drawn)
The “hERG current change (%, negative = inhibition) at 10uM” value of the first is lower: -21.7% for the first, 13.7% for the second.

Going from `Cc1cccc([C@@H]2[C@@H]3C(=O)N(Cc4ccccc4)C(=O)[C@@H]3[C@]3(Cc4ccccc4)C(=O)N(c4cccc(Cl)c4)C(=O)N23)c1` to `CC[C@@]12C(=O)N(c3cccc(Br)c3)C(=O)N1[C@H](c1ccc(OC)cc1)[C@@H]1C(=O)N(C(C)(C)C)C(=O)[C@@H]12`, the “hERG current change (%, negative = inhibition) at 10uM” value falls from 23.6% to -2.53%.

Going from `O=C(CCNS(=O)(=O)c1ccc2c(c1)CCC(=O)N2)Nc1ccc(F)c(F)c1` to `Cc1ccc(S(=O)(=O)N2CCOCC2)cc1C(=O)Nc1ccc(S(=O)(=O)Nc2nccs2)cc1`, the “hERG current change (%, negative = inhibition) at 10uM” value rises from -18.9% to -3.9%.

Going from `O=C(OC(C(=O)NCc1ccc2c(c1)OCO2)c1ccccc1F)c1ccco1` (stereo not drawn) to `COC(=O)c1cc(Br)c(=O)n(Cc2ccc3c(c2)OCO3)c1`, the “hERG current change (%, negative = inhibition) at 10uM” value rises from -31.1% to -9.61%.

Going from `CCOC(=O)C1CCN(C(=O)c2ccccc2NC(=O)c2ccc(Cl)cc2)CC1` to `Nc1ccccc1C(=O)N1CCC(O)(c2ccc(Cl)cc2)CC1`, the “hERG current change (%, negative = inhibition) at 10uM” value rises from -12.6% to 2.69%.

Compared with `Cc1ccc(C(C)(C)C)c(OCCCn2ccnc2)c1.O=C(O)C(=O)O`, `CC(C)(C)NC(=O)C(c1ccc(OCC(N)=O)cc1)N(C(=O)c1cccnc1)C1CC1` (stereo not drawn) is higher in “hERG current change (%, negative = inhibition) at 10uM” value: -16.6% for the first, 1.73% for the second.

Going from `Cn1nc(C(=O)NC2CCCCCC2)ccc1=O` to `CC(Sc1nnc(Cc2ccccc2)n1C)C(=O)NC1CC1` (stereo not drawn), the “hERG current change (%, negative = inhibition) at 10uM” value rises from 1.75% to 9.9%.

Going from `COC(=O)CSc1ncnc2c1sc1nc(-c3ccco3)c3c(c12)CC(C)(C)OC3` to `Cc1nn(C)c(-c2n[nH]c(=S)n2Cc2ccco2)c1Cl`, the “hERG current change (%, negative = inhibition) at 10uM” value rises from 3.01% to 11.7%.

Compared with `Cc1c(NC(=O)Nc2cccc(C(F)(F)F)c2)c(=O)n(-c2ccccc2)n1C`, `COc1ccc(N2C(=O)C(CC(=O)Nc3ccccc3)N(Cc3ccccn3)C2=S)cc1` (stereo not drawn) is lower in “hERG current change (%, negative = inhibition) at 10uM” value: -2.96% for the first, -18.7% for the second.

Going from `COc1ccc([C@@H]2CC(=O)c3c(O)cc(O[C@@H]4OC(CO[C@@H]5OC(C)[C@H](O)[C@H](O)C5O)[C@@H](O)[C@@H](O)C4O)cc3O2)cc1O` (stereo partly drawn) to `Cc1cc(C)c2nc(N3C(=O)C(O)=C(C(=O)c4ccco4)C3c3ccc(O)cc3)sc2c1` (stereo not drawn), the “hERG current change (%, negative = inhibition) at 10uM” value rises from 13.2% to 18.3%.

Compared with `CC(C)n1nnnc1SCC(=O)N1N=C(c2cccs2)CC1c1cccs1` (stereo not drawn), `CC(C)CCNC(=O)NC(=O)CSc1nnc(-c2ccccc2F)n1N` is higher in “hERG current change (%, negative = inhibition) at 10uM” value: -46.1% for the first, -29.8% for the second.

First: Cc1[nH]c2ccccc2c1/C=N/NS(=O)(=O)c1ccccc1
Second: COc1ccccc1-n1c(-c2ccccc2Cl)nc2ccccc2c1=O
The “hERG current change (%, negative = inhibition) at 10uM” value of the first is higher: 15.1% for the first, -7.34% for the second.

Compared with `C/C(=N/NC(=O)c1ccccn1)c1ccncc1`, `O=C(c1ccncc1)N1N=C(c2ccc(Cl)cc2)CC1c1ccccc1O` (stereo not drawn) is higher in “hERG current change (%, negative = inhibition) at 10uM” value: 15.3% for the first, 18.1% for the second.

Going from `Cc1cccc(N2CCN(Cc3nc(-c4ccc(F)cc4F)oc3C)CC2)n1` to `COc1ccc(-c2nc(CN3CCC(C(=O)NC4CCN(Cc5ccccc5)CC4)CC3)c(C)o2)cc1OC`, the “hERG current change (%, negative = inhibition) at 10uM” value rises from -41.3% to 1.67%.

Compared with `CN(C)CC1CSCCC1(O)c1cccc(Cl)c1.Cl` (stereo not drawn), `CC1CCCC(C)N1CC(O)COCc1ccccc1.Cl` (stereo not drawn) is lower in “hERG current change (%, negative = inhibition) at 10uM” value: 7.05% for the first, 5.08% for the second.

Going from `CC(=O)CCc1ccc(OCCCCN2CCC(Cc3ccccc3)CC2)cc1.O=C(O)C(=O)O` to `C/C(CCc1ccccc1)=N\NC(=S)NCCc1ccccc1`, the “hERG current change (%, negative = inhibition) at 10uM” value rises from -79.5% to 15.6%.

Compared with `N#Cc1c(C(F)(F)F)cc(-c2cccs2)nc1N1CCCCC1`, `CCCN1C(=O)/C(=C/c2ccc(N3CCCC3)c(C)c2)NC1=S` is lower in “hERG current change (%, negative = inhibition) at 10uM” value: 17.3% for the first, -7.93% for the second.

First: CC(NC(N)=O)C(=O)Nc1ccc(Cl)c(S(=O)(=O)Nc2ccc(Br)cc2)c1 (stereo not drawn)
Second: COc1ccccc1CCNC(=O)C(=O)NCC1OCCN1S(=O)(=O)c1ccc(OC)c(OC)c1 (stereo not drawn)
The “hERG current change (%, negative = inhibition) at 10uM” value of the first is higher: 23.2% for the first, -25.7% for the second.

First: Cc1ccc(S(=O)(=O)NC2CC2)cc1
Second: COC(=O)Nc1ccc(S(=O)(=O)N2CCCC(C(=O)N3CC(C)OC(C)C3)C2)cc1 (stereo not drawn)
The “hERG current change (%, negative = inhibition) at 10uM” value of the first is lower: 11.7% for the first, 16.7% for the second.

Going from `Cc1ccc(OCC(=O)NC2CCCc3ccccc32)c(C)c1` (stereo not drawn) to `O=C(Cc1ccccc1)NCC1OCCc2ccccc21` (stereo not drawn), the “hERG current change (%, negative = inhibition) at 10uM” value rises from -5.04% to 23.6%.

Going from `CC(=O)c1ccc2c(c1)c1ccccc1n2CC(C)C` to `CCC(C)[C@H](NC(=O)N1CCn2c1nc1ccccc12)C(=O)NCc1ccccc1` (stereo partly drawn), the “hERG current change (%, negative = inhibition) at 10uM” value rises from -4.87% to 6.25%.

Compared with `Cc1cc(C)cc(NC(=S)N2CCN(S(=O)(=O)c3ccccc3)CC2)c1`, `Cc1ccc(C)c(N=C2CCCN2Cc2ccccc2)c1C#N` is lower in “hERG current change (%, negative = inhibition) at 10uM” value: 0.86% for the first, -12.1% for the second.

First: CCc1ccc(S(=O)(=O)NCCc2csc(-c3cccnc3)n2)s1
Second: Cc1ccc(-c2csc(Nc3ccccn3)n2)cc1
The “hERG current change (%, negative = inhibition) at 10uM” value of the first is lower: -32.1% for the first, -23.7% for the second.

Going from `CCN(CC)S(=O)(=O)c1ccc(C(=O)N2CCN(CCN3C(=O)c4cccc5cccc(c45)C3=O)CC2)cc1` to `CCCN1C(=O)/C(=C/c2nc3ccccc3c(=O)[nH]2)c2cc(C)ccc21`, the “hERG current change (%, negative = inhibition) at 10uM” value falls from 25.7% to 6.59%.

First: COC(=O)CCP(=O)(O)Cc1ccccc1CP(=O)(O)CCC(=O)OC
Second: CCOC(=O)CSC1=C(C#N)C(c2ccccc2Cl)C(C(=O)OC)C(=O)N1 (stereo not drawn)
The “hERG current change (%, negative = inhibition) at 10uM” value of the first is lower: -5.43% for the first, 1.4% for the second.

First: Cc1ccc2cc(CN(CC3CCCO3)C(=S)NCc3ccco3)c(=O)[nH]c2c1C (stereo not drawn)
Second: O=C(NCc1ccco1)C1CCCN(S(=O)(=O)c2cccc3nsnc23)C1 (stereo not drawn)
The “hERG current change (%, negative = inhibition) at 10uM” value of the first is lower: -40.8% for the first, 0.547% for the second.

Compared with `O=C(CN1CCOCC1)Nc1ccccc1NC(=O)C1CCN(c2ncccn2)CC1`, `COc1ccc(C(CC(=O)Nc2nccs2)n2cccc2)cc1` (stereo not drawn) is higher in “hERG current change (%, negative = inhibition) at 10uM” value: 9.55% for the first, 10.2% for the second.

First: O=C(Nc1ccccc1)c1ccccc1OCc1cccc([N+](=O)[O-])c1
Second: Cc1ccc(-c2nnc(COc3cccc(-n4cnnn4)c3)o2)cc1
The “hERG current change (%, negative = inhibition) at 10uM” value of the first is higher: 11.8% for the first, -2.89% for the second.

Reference: paper PMC4336329 (PLoS ONE, 2015)
